According to publication PMC4336329 (PLoS ONE, 2015):
The campaign covered roughly 310,000 compounds. About 2,200 (0.71%) showed an effect of 50% or more. Effects have a minus sign here. The list shows a part of the results.

The compounds below were run against human ether-à-go-go-related gene (hERG) potassium channel (human, UniProt Q12809) (assay: primary screen, population patch clamp on CHO cells stably expressing hERG).
Chain of human ether-à-go-go-related gene (hERG) potassium channel (Q12809 whole entry, looked up): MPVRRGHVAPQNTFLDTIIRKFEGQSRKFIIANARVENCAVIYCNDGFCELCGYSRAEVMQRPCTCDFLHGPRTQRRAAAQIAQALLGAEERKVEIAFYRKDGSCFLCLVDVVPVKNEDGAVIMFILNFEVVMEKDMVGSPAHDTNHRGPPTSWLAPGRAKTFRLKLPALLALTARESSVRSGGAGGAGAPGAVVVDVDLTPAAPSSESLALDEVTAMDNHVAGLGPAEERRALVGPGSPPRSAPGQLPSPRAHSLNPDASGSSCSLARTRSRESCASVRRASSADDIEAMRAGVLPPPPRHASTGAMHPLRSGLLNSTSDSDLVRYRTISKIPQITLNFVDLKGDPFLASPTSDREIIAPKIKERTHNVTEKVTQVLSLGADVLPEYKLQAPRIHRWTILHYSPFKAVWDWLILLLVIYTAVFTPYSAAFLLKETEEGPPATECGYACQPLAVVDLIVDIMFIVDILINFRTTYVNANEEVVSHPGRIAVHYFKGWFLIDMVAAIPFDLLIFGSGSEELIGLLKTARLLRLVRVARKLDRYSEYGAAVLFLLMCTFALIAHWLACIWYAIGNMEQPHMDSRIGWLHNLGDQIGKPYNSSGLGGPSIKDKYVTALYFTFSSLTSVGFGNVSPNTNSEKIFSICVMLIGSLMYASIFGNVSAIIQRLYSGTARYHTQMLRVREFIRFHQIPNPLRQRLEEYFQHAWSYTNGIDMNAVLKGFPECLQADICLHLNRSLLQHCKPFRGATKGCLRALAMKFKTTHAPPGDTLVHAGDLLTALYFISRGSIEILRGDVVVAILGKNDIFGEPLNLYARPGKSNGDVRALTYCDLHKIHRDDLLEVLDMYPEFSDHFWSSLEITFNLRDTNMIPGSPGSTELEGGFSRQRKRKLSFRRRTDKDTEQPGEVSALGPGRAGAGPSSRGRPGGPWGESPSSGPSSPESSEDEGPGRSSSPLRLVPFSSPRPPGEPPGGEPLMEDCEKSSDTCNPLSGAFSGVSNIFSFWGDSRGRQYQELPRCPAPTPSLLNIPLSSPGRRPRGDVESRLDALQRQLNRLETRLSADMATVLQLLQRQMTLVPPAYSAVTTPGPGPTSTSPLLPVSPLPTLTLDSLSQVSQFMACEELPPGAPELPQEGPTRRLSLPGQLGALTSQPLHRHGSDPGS

| Structure (SMILES) | hERG current change (%, negative = inhibition) at 1uM |
| --- | --- |
| COC(=O)NC(C)N1C(=O)C2C3C=CC(C3)C2C1=O (stereo not shown) | 8.19% |
| COc1cccc2[nH]c3c(=O)n(CCN(C)C)cnc3c12 | 3.41% |
| CC(C(=O)Nc1ccc(C#N)cc1)N(C)CC(=O)Nc1cccc(F)c1 (stereo not shown) | -43.5% |
| Cc1cccc(CSc2ccc3nnc(-c4ccccn4)n3n2)c1 | -58.9% |
| CN1CCc2c(sc3c2C(=O)NC(c2cccs2)N3)C1 (stereo not shown) | -0.102% |
| Cc1ccc2c3c1C(=O)C(=O)N3C(C)(C)CC2C (stereo not shown) | -2.23% |
| O=C(CCN1C(=O)c2ccccc2C1=O)NCc1ccc(Cl)cc1 | 5.62% |
| Cc1cc(=O)[nH]c2n[nH]c(-c3ccccc3)c12 | 3.87% |
| Cc1cccc(-c2nc(S(=O)(=O)c3ccccc3)c(N3CCOCC3)o2)c1 | 3.01% |
| Cc1cccc2sc(NNC(=O)C3=COCCO3)nc12 | -21.6% |
| O=S(=O)(c1ccc(F)cc1)N1CCN(S(=O)(=O)c2cccs2)CC1 | 9.14% |
| CN1CCN(C(=S)SCC(=O)Nc2ccc(Cl)cc2C(=O)c2ccccc2)CC1 | -5.6% |
| CN(CC(=O)NCC1CCCO1)S(=O)(=O)c1cc(Cl)ccc1Cl (stereo not shown) | 0.917% |
| COc1ccc(CNC(=O)CSc2nnc(C3CC3)n2C2CC2)cc1 | 8.45% |
| Cc1ccc(S(=O)(=O)N2CCN(C(=O)COC(=O)Cc3cccc(C(F)(F)F)c3)CC2)c(C)c1 | 7.77% |
| Cn1c(=O)c2nc(Cl)c(-c3ccccc3)nc2n(C)c1=O | -0.094% |
| COc1cc(NC(=O)c2cccnc2Sc2ccc(Cl)cc2)cc(OC)c1OC | 6.7% |
| Nc1nccnc1C(=O)OCC(=O)c1ccc[nH]1 | 5.19% |
| O=C(c1oc(=O)c2ccccc2c1-c1ccccc1)N1CCN(C2CCCCC2)CC1 | -22.8% |
| O=C(CC(=O)NCc1ccccc1)NCc1ccccc1 | 13.9% |
| CCOc1ccc(C2/C(=C(/O)c3ccc4c(c3)CC(C)O4)C(=O)C(=O)N2CCCn2ccnc2)cc1 (stereo not shown) | 14.3% |
| COC(=O)C1=C(C)Nc2nnnn2C1c1cccs1 (stereo not shown) | 1.42% |

| Structure (SMILES) | hERG current change (%, negative = inhibition) at 1uM |
| --- | --- |
| Cc1cc(C)n2nc(SC(C)C(=O)NC3CCCCC3C)nc2n1 (stereo not shown) | 2.75% |
| COC(=O)C1CCN(C(=O)COC(=O)CSc2ccc(C(N)=O)cc2[N+](=O)[O-])CC1 | 8.5% |
| C[C@@H](CN=[N+]=[N-])CN1CC[C@H](O)CCC1=O | 11.5% |
| CC(=O)N(C)c1ccc(NC(=O)Nc2ccc(Cl)cc2)cc1 | 8.67% |
| Cc1ccc(OCCCCN2CCCCC2)c(Br)c1.O=C(O)C(=O)O | -28.5% |
| O=C(NCCc1ccc(Cl)cc1)C1CCC(CNc2c(N3CCCCC3)c(=O)c2=O)CC1 (stereo not shown) | 10.4% |
| C[C@H](NC(=O)C1CCN(S(=O)(=O)c2ccccc2)CC1)C(=O)NCc1ccco1 | 26.6% |
| COc1cc(C(=O)NCC(c2ccc(F)cc2)N2CCOCC2)ccc1OCc1ccccc1Cl (stereo not shown) | 3.04% |
| Cc1cc(=O)oc2c(C)c(OCC(=O)N3CCC(C(=O)O)(c4ccccc4)CC3)ccc12 | 16.6% |
| CCc1nc(N2CCC3(CC2)OCCO3)c2nnn(Cc3ccccc3Cl)c2n1 | 20.9% |
| O=C(CN1CCN(C(=O)C2COc3ccccc3O2)CC1)Nc1ccc(F)cc1 (stereo not shown) | -63.5% |
| CC1CCN(C(=O)Cn2cc(C#N)c3ccccc32)CC1 | 15.1% |
| O=C(Nc1ccc(F)cc1)c1cn(-c2ccccc2)nc1-c1ccncc1 | -25.6% |
| COC(=O)C1C(O)=C(C=Nc2ccc(N)cc2)C(=O)CC1(C)C (stereo not shown) | 8.86% |
| COCCCNC(=O)c1ccc(Cn2c(=O)c3ccccc3n(CC(=O)NCCc3ccc(OC)c(OC)c3)c2=O)cc1 | 8.89% |
| CCOC(=O)C1(Cc2ccccc2)CCCN(Cc2cnn(CC)c2)C1 (stereo not shown) | 4.29% |
| COc1ccc(OC)c(NC(=S)NN2CCOCC2)c1 | 12% |
| CSCCC(NC(=O)c1c(C)oc2c1CCCC2)C(=O)O (stereo not shown) | 7.87% |
| CCc1ccc(NC(=O)C2CC(=O)Nc3ncnn32)cc1 (stereo not shown) | 15.2% |
| OC(COc1ccc(CNCc2cccnc2)cc1)CN1CCc2ccccc2C1 (stereo not shown) | -0.851% |
| COc1ccc(NC(=O)C2Cc3ccccc3C(=O)O2)cc1 (stereo not shown) | 8.38% |
| Cc1nc2ccccn2c1C(=O)N/N=C/c1cc(C)n(-c2ccc(Br)cc2)c1C | 16.7% |

| Structure (SMILES) | hERG current change (%, negative = inhibition) at 1uM |
| --- | --- |
| C=CCc1cccc(/C=N/NC(=O)CNc2cccc3ccccc23)c1O | -0.772% |
| COC(=O)c1ccc(NC(=O)CCc2nnc3ccc(N4CCC5(CC4)OCCO5)nn23)cc1 | 11.1% |
| CN(C)CC1CCCCC1OC(=O)c1ccc(S(=O)(=O)N(C)c2ccccc2)cc1 (stereo not shown) | 13.7% |
| c1cncc(-c2nc3c(ccc4ccccc43)[nH]2)c1 | 12.8% |
| CNC(=S)NNC(=O)c1sc2cc(C(F)(F)F)cnc2c1-c1cccnc1 | 13% |
| Cc1c(Cl)cccc1N1C(=O)C2ON(c3ccccc3)C(c3cccnc3)C2C1=O (stereo not shown) | 10.6% |
| O=C(Cc1ccccc1Cl)Nc1cc(S(=O)(=O)N2CCOCC2)ccc1N1CCOCC1 | 9.2% |
| O=C(c1ccco1)N1CCN=C1SCc1cccc(Cl)c1 | 16.6% |
| Cc1cc(C)nc(NS(=O)(=O)c2ccc(NC(=S)NC(=O)C(C)C)cc2)n1 | 2.48% |
| CN(C)c1ccc(C(=O)NNC(=O)Nc2ccccc2)cc1 | 14.3% |
| O=C(CCSc1ccccc1)OCn1nnc2ccccc2c1=O | 13.7% |
| Cc1nc2scc(C)n2c(=O)c1S(=O)(=O)NCCc1ccccc1 | 19.4% |
| CCOC(=O)N1CCN(C(=O)C(=O)NNC(=O)COc2ccc(Cl)cc2)CC1 | 14.3% |
| CC(=O)N1c2ccc(S(=O)(=O)NCCC(=O)NC3CCCCCC3)cc2CC1C (stereo not shown) | 2.71% |
| O=C(N1CCN(c2ccccc2)CC1)C12CC3CC(CC(C3)C1)C2 | -21.3% |
| CCOc1ccc(NC(=O)CN(C)CC(=O)Nc2ccc(F)c(F)c2F)cc1OCC | 8.28% |
| NC(=S)N=Nc1c(O)n(CCCl)c2ccc(Cl)cc12 | 5.67% |
| Cc1ccc(S(=O)(=O)N2CCN(Cc3csc(C)n3)CC2)cc1 | 12.1% |
| O=C(c1ccc(-n2cncn2)c([N+](=O)[O-])c1)N1CCN(S(=O)(=O)c2ccccc2Br)CC1 | -21.8% |
| CCO[C@H]1OC(C(=O)NC2CC2)=C[C@@H](C2CC2)[C@@H]1CCCO | 11.4% |
| O=C(CNS(=O)(=O)c1cccs1)NCc1ccccc1 | 10.6% |
| Cc1cc(C)n(-c2ccc(C(=O)OCC(=O)NCc3ccco3)cc2)n1 | 7.84% |

| Structure (SMILES) | hERG current change (%, negative = inhibition) at 1uM |
| --- | --- |
| O=C(NC1CC1)C1C2C3C4CC5C3C5C4C12 (stereo not shown) | 3.16% |
| NC(=O)NC(=O)COC(=O)c1ccc2noc(-c3ccccc3)c2c1 | 14.7% |
| CCSc1ccccc1C(=O)Nc1ccc([N+](=O)[O-])cc1OC | -6.29% |
| Cl.O=C(NCCCc1ccccc1)[C@@H]1Cc2ccccc2CN1 | 11.6% |
| CCCCC(=O)OCc1nc(N)nc(Nc2ccccc2C)n1 | 10.1% |
| COc1ccc(CNCCC(c2ccccc2)C2CCOC(C)(C)C2)cc1 (stereo not shown) | -12.5% |
| Cc1cccc(Oc2nc3ccccn3c(=O)c2/C=C(\C#N)C(=O)NC2CCS(=O)(=O)C2)c1C (stereo not shown) | 15.9% |
| Cc1cccc(CNC(=O)C2CCC(=O)N(C3CCCC3)C2)c1 (stereo not shown) | 25.3% |
| CCOC(=O)c1sc2ncn(CC(=O)N(CC)CC)c(=O)c2c1C | 9.01% |
| CCOC(=O)c1cccnc1SCC(=O)Nc1ccc(C)cc1 | 3.81% |
| Cc1ccc(-n2nnc(-c3nccs3)n2)cc1 | -2.2% |
| CCOC(=O)Cn1cc(C(=O)C(=O)N2CCOCC2)c2ccccc21 | -3.81% |
| CNc1nc(-c2ccccc2)nc(-c2ccccc2)c1C#N | 14.1% |
| Cn1c(C(=O)N2CCCCCC2)cc2c(=O)n(C)c3ccccc3c21 | 0.569% |
| Cc1cccc2[nH]c(-c3ccc(NC(=O)c4ccco4)cc3)nc12 | 2.22% |
| Cc1c(C#N)c(N)c(C(=O)c2ccccc2)n1Cc1ccccc1 | 5.47% |
| O=C(CCC(=O)c1ccc(F)cc1)Nc1cccc(S(=O)(=O)Nc2cccc(Cl)c2)c1 | 4.34% |
| Cc1ccc(NC(=O)Nc2nnc(Cc3ccc([N+](=O)[O-])cc3)s2)cc1 | 12% |
| O=C(NCCNC(=O)c1ccccc1F)c1ccco1.O=C(O)C(=O)O | 10% |
| Cc1ccc(C)c(OCc2cc(C(=O)N(C)Cc3nccn3C)no2)c1 | 12.1% |
| CCCS(=O)(=O)N1CCCC(C(=O)NCCc2ccccc2)C1 (stereo not shown) | 11.3% |
| COc1cc([N+](=O)[O-])ccc1NC(=O)NN1CCN(C)CC1 | -7.37% |
